In PubChem BioAssay AID686970 (National Center for Advancing Translational Sciences (NCATS), 2013):
The whole screen tested about 360,000 compounds, of which about 6,000 (1.7%) were called active. Inconclusive means that the source gave no clear call. Such entries were picked first, then a sample of the others. Calls follow the shape of the dose curve; as a rule, active = well fitted cell-killing curve with a large enough effect; inconclusive = small, poorly fitted or top-dose-only effect, or effect the other way; inactive = flat fitted curve, though single readings scatter. No potency is given beside an inconclusive call; the fits are too rough.

Assay: qHTS for induction of synthetic lethality in tumor cells producing 2HG: qHTS for the HT-1080-NT fibrosarcoma cell line;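 also: NT is the 2HG producing partner of a matched IDH1 knockdown line; nearly all actives have a fitted effect of over 55% in size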;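 as to activity, negative = less viability: 0% = DMSO-treated cells and -100% = media-only wells without cells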
Conditions: HT-1080-NT fibrosarcoma viability, CellTiter-Glo ATP luminescence, 48 h; activity, negative = less viability: at 46.1 µM (top of the series) unless noted
Summary of the method: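 Luminescent CellTiter-Glo readout after 48 hours of compound exposure at 37 degrees C defined viability of HT-1080-NT cells. Activity was normalized to DMSO wells and cell-free media wells; concentration-response curves were fitted and assigned curve classes.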
Potency is read from the fitted curve at half-maximal effect; tags tell the direction and shape of the fitted curve.

| SMILES | Potency | activity, negative = less viability |
| --- | --- | --- |
| CC1(C)OC(=O)C2=C(C[C@@H](C3CCCC3)O[C@H]2CCc2cccc(Cl)c2)O1 | inactive |  |
| CCn1cc(C(=O)NCC(OC)OC)c(=O)c2cc(S(=O)(=O)N(C)C3CCCCC3)ccc21 | inconclusive [cytotoxic, single point] |  |
| CCCOc1ccc(F)cc1-c1cc(C(=O)Nc2ccc(OC)c(OC)c2)[nH]n1 | inconclusive [cytotoxic, single point] |  |
| Cn1c(-c2ccccc2)c[n+]2c1-c1ccccc1C2 | inactive |  |
| S=C(NCCC(c1ccccc1)c1ccccc1)Nc1cccc(Cl)c1 | inconclusive [cytotoxic, single point] |  |
| COc1ccc(C(c2nnnn2C2CCCCC2)N2CCN(C/C=C/c3ccccc3)CC2)cc1 (stereo not given) | inconclusive [cytotoxic, single point] |  |
| CCOc1ccc(NC(=O)c2cc(Cl)nc3ccccc23)cc1 | inconclusive [cytotoxic, partial curve] |  |
| COc1cccc(CNc2nc3cc(-c4csc5ccccc45)sc3c(=O)n2C)c1 | inconclusive [cytotoxic, single point] |  |
| O=C(Cc1ccccc1)NCc1ccc(-n2cccc2)cc1 | active: 5.17 µM |  |
| CC(OC(=O)c1cc2sccc2n1C)C(=O)NCCc1ccccc1 (stereo not given) | inconclusive [cytotoxic, single point] |  |
| COc1ccc(-c2cc(=O)oc3c(O)c(O)ccc23)cc1 |  | inconclusive: -37.9% [cytotoxic] |
| Cc1ccc(N(CC2CO2)S(=O)(=O)c2ccccc2[N+](=O)[O-])cc1 (stereo not given) | inconclusive [cytotoxic, single point] |  |
| N#CCSc1nnc(-c2sc3ccccc3c2Cl)o1 | inconclusive [cytotoxic, single point] |  |
| O=C(N/N=C/c1cccc2ccccc12)c1ccc(CN2CCOCC2)cc1 | inactive |  |
| Cc1ccc(S(=O)(=O)N2CCc3ccccc3C2)cc1 | inactive |  |
| C[C@H](CCC(=O)O)[C@H]1CC[C@H]2[C@@H]3[C@H](O)C[C@@H]4C[C@H](O)CC[C@]4(C)[C@H]3C[C@H](O)[C@]12C | inconclusive [rising, single point] |  |
| O=[N+]([O-])c1ccc(N/N=C/c2cn(-c3ccccc3)nc2-c2ccccc2)cc1 | inconclusive [cytotoxic, single point] |  |
| O=C(CN1CCN(S(=O)(=O)c2ccc(Br)cc2)CC1)c1ccc(O)c(O)c1 | inactive |  |
| O=c1ccc2cc(O)c(O)cc2o1 | inconclusive [cytotoxic, single point] |  |
| O=c1oc(-c2ccccc2)cc(Cl)c1Cl | active: 16.4 µM |  |
| CC1CCN(S(=O)(=O)c2ccc(NC(=O)CN3CCN(c4ccccc4)CC3)cc2)CC1 | inconclusive [cytotoxic, single point] |  |
| O=C(NCc1ccccc1)C(C(=O)c1ccc(F)cc1)n1ccccc1=O (stereo not given) | inactive |  |
| Cc1ccc(C(=O)NNC(=O)/C=C\C(=O)O)cc1 | inactive |  |
| CCc1ccccc1NC(=O)COC(=O)c1c(C)nsc1NC | active: 4.11 µM |  |
| CCCCNc1ncnc2c1cnn2-c1ccc(Cl)cc1 | active: 11.6 µM |  |

| SMILES | Potency | activity, negative = less viability |
| --- | --- | --- |
| CCOC(=O)c1c(NC(=O)CSc2ncnc3[nH]ncc23)sc2c1CCC(C)C2 (stereo not given) | inconclusive [cytotoxic, partial curve] |  |
| CCCc1c(-c2ccc(Cl)cc2)ncn1CCc1ccccc1OC | inconclusive [cytotoxic, single point] |  |
| CCc1nc2ccc(C(=O)N(C)CCCN(C)C)cn2c1N(C)CCCc1ccccc1 | inconclusive [cytotoxic, single point] |  |
| O=C(COC(=O)COc1ccc(Cl)cc1)Nc1ncc(Br)s1 | inactive |  |
| CCC(C)(C)c1ccc(OCCCC[n+]2ccc(C)cc2)c(C(C)(C)CC)c1 | inconclusive [cytotoxic, single point] |  |
| COc1ccc(CC(=O)Nc2nc(OCCN3CCCC3=O)cnc2-c2cccc(C(F)(F)F)c2)cc1 | inactive |  |
| CCOc1ccc(Nc2nc(N)nc(CCl)n2)cc1 | active: 0.82 µM |  |
| CCN(CC)c1ccc(/C=N/Nc2nc3ccccc3[nH]2)c(O)c1 | active: 8.2 µM |  |
| CCN(CC)C(=O)CN(Cc1ccccc1)S(=O)(=O)c1ccc(F)cc1 |  | inconclusive: 30.9% |
| CC1CCCCC1NC(=O)CCNS(=O)(=O)c1cc(Br)cnc1N (stereo not given) | inactive |  |
| O=C1Nc2ccc(Br)cc2/C1=C/C(=O)c1ccccc1 | inconclusive [cytotoxic, single point] |  |
| CCN(CC)C(=O)OCCc1cc2ccccc2c(=O)o1 | inactive |  |
| CCOc1ccc2c(C)nc(NC3=NC(C)(C)C=C(C)N3)nc2c1 |  | inconclusive: -31.5% [cytotoxic] |
| COc1cccc(NC(=O)CSc2nnc(CNC(=O)c3ccco3)n2C)c1 | inconclusive [cytotoxic, partial curve] |  |
| CC(C)n1c(=O)c2ccccc2n1Cc1cn(Cc2cccs2)nn1 | inactive |  |
| CCN(CC(=O)NCc1ccc(F)cc1)C(=O)C(C)Oc1cccc(Cl)c1 (stereo not given) | inactive |  |
| CCOC(=O)C1=C(c2ccccc2)NC(=S)NC1c1cc([N+](=O)[O-])ccc1OC (stereo not given) | inactive |  |
| Cc1cc(C)c(NC(=S)NC(NC(=O)c2ccccc2)C(Cl)(Cl)Cl)c(C)c1 (stereo not given) | inconclusive [cytotoxic, single point] |  |
| CCc1nc2c(OCc3ccc(C(F)(F)F)cc3)cccn2c1N(C)C(=O)c1ccc(C)cc1 | inconclusive [cytotoxic, single point] |  |
| COc1cc2nc(N3CCCN(C)CC3)nc(N(C)C)c2cc1OC | inactive |  |
| Cc1ccc(C)c(NC(=O)C(=O)NCCc2c[nH]c3ccccc23)c1 | inactive |  |
| CCOc1ccc(-c2nc(C#N)c(N3CCN(Cc4ccccc4)CC3)o2)cc1 | inactive |  |
| CCOC(=O)C1=C(NC(=S)NC(=O)c2ccccc2)c2ccccc2CC1C(C)C (stereo not given) | inconclusive [cytotoxic, partial curve] |  |
| O=C(Nc1ccccc1)Nc1nnc(Cc2ccc(F)cc2)s1 | inconclusive [cytotoxic, single point] |  |
| COc1ccc(OC)c(CCNC(=O)c2cccc(NC3=NC4CS(=O)(=O)CC4S3)c2)c1 (stereo not given) | inactive |  |

| SMILES | Potency | activity, negative = less viability |
| --- | --- | --- |
| Cc1cnc([N+](=O)[O-])n1CCOC(=O)NC(=O)c1ccccc1Cl | inactive |  |
| Cc1ccc2nc(-c3ccc(NC(=O)CN(c4ccccc4C)S(C)(=O)=O)cc3)sc2c1 | inactive |  |
| O=c1cc(C(F)(F)C(F)F)oc2ccccc12 | inconclusive [cytotoxic, single point] |  |
| COc1ccc(C2CC(c3ccccc3)=NN2C(=O)COC(=O)c2cc(S(=O)(=O)N3CCOCC3)ccc2F)cc1 (stereo not given) | inactive |  |
| CC(C)CC(N)c1csc(NC(=O)Nc2ccccc2C(C)(C)C)n1 (stereo not given) | inconclusive [cytotoxic, single point] |  |
| Cc1cc(OCCN2CCN(S(=O)(=O)c3ccccc3F)CC2)ccc1C(C)C | inactive |  |
| O=c1oc2ccccc2c(Nc2cc3ccccc3cc2O)c1[N+](=O)[O-] |  | inconclusive: -36.8% [cytotoxic] |
| CCCCn1nnnc1C(c1ccnc2ccccc12)N1CCN(C/C=C/c2ccccc2)CC1 (stereo not given) | inconclusive [cytotoxic, single point] |  |
| CCn1c2ccc(C)cc2c2nnc(SCCN3CCCCC3)nc21 | inconclusive [cytotoxic, single point] |  |
| COc1ccc(/C=N/n2c(SC)nnc2-c2ccccc2)cc1C | inconclusive [cytotoxic, single point] |  |
| CCCc1ccc(-c2cc(C(=O)NCCc3ccc(S(N)(=O)=O)cc3)c3ccccc3n2)cc1 | inconclusive [cytotoxic, single point] |  |
| COc1ccc(-c2cc(C(=O)Nc3ccc(NC(C)=O)cc3)[nH]n2)c(C)c1 | inconclusive [rising, single point] |  |
| Cc1cccnc1C(NC(=O)C1CCN(Cc2ccc(Oc3ccccc3)cc2)CC1)c1ccccc1 (stereo not given) | active: 23.1 µM |  |
| Cc1cc(-c2n[nH]c(=S)n2/N=C/C(Cl)=C/c2ccccc2)n[nH]1 | inconclusive [cytotoxic, single point] |  |
| CCCCCCOc1ccc(NC(=O)CC2C(=O)N(CC)C(=S)N2Cc2ccco2)cc1 (stereo not given) | inactive |  |
| Cc1ccc(Cn2ccsc2=NC(=O)CCl)cc1 | active: 1.03 µM |  |
| c1ccc2c(c1)oc1c(-c3ccc4nccn4c3)cccc12 | inconclusive [cytotoxic, single point] |  |
| CCC(C)(C)NC(=O)C(c1ccc(OC)cc1)N(C(=O)CCC(=O)Nc1cc(C)on1)c1ccc(F)cc1 (stereo not given) | inconclusive [cytotoxic, single point] |  |
| O=C(NCCc1ccccc1)C(=O)NCCC1CCCCN1S(=O)(=O)c1ccccc1 (stereo not given) | inactive |  |
| COCCCn1c(SCC(=O)N2CCCC2=O)nc2ccccc2c1=O | inactive |  |
| CCN(CC)S(=O)(=O)c1ccc(S(=O)(=O)Nc2c(C)nn(C)c2C)cc1 | active: 16.4 µM |  |
| C/C(=N\NC(=S)Nc1ccc(C)cc1)c1cccc(N)c1 | inactive |  |
| Cc1ccc(-c2noc(CCC(=O)Nc3ccccc3N3CCN(C)CC3)n2)cc1 | inconclusive [cytotoxic, single point] |  |
| CC(=O)Nc1sc2c(c1-c1nc3ccccc3s1)CCN(C(C)C)C2 | active: 11.6 µM |  |
| O=C(CCN1Cc2ccccc2C1)c1ccc2c(c1)OCCO2 | inconclusive [cytotoxic, single point] |  |
